Measurements published in the supplement of paper PMC11876631.
Positions count from the first letter of the chain named. Names and notes keep the numbering of the source. ± gives the standard deviation of the averaged measurements. Laboratory Escherichia coli strains with one amino-acid change in an essential protein, pooled on minimal glucose agar with carbenicillin or gentamicin at twice the control MIC (plus kanamycin and chloramphenicol for the plasmids), 48 h. Fold change of barcode share against drug-free plates; higher = less susceptible. Active = above 20 in both replicates (the paper's putatively resistant). '<' = one read or none on drug, '>' = one read or none on a drug-free plate. Shares are relative, so most strains fall below 1 when a few take over. Listed are strains with at least 15 reads on both drug-free plates, and hits; most hits rest on fewer reference reads. Replicate rank correlation about 0.5. Edits are read from barcodes.

B1: ispD V11A (protein)
chain: MATTHLDVCAAVPAAGFGRRMQTECPKQYLSIGNQTILEHSVHALLAHPRVKRVVIAISPGDSRFAQLPLANHPQITVVDGGDERADSVLAGLKAAGDAQWVLVHDAARPCLHQDDLARLLALSETSRTGGILAAPVRDTMKRAEPGKNAIAHTVDRNGLWHALTPQFFPRELLHDCLTRALNEGATITDEASALEYCGFHPQLVEGRADNIKVTRPEDLALAEFYLTRTIHQENT
B2: ispD L103W (protein)
chain: B1 chain with A11V, L103W
B3: ispD V104A (protein)
chain: B1 chain with A11V, V104A
B4: ispD V55W (protein)
chain: B1 chain with A11V, V55W
B5: ispD V55A (protein)
chain: B1 chain with A11V, V55A
B6: ispD V104W (protein)
chain: B1 chain with A11V, V104W
B7: ispD V104D (protein)
chain: B1 chain with A11V, V104D
B8: ispD I56A (protein)
chain: B1 chain with A11V, I56A
B9: ispD V12A (protein)
chain: B1 chain with A11V, V12A
B10: ispD V11P (protein)
chain: B1 chain with A11P
B11: ispD L103D (protein)
chain: B1 chain with A11V, L103D
B12: ispD L103A (protein)
chain: B1 chain with A11V, L103A
B13: ispD V55Q (protein)
chain: B1 chain with A11V, V55Q
B14: ispE V146A (protein)
chain: MRTQWPSPAKLNLFLYITGQRADGYHTLQTLFQFLDYGDTISIELRDDGDIRLLTPVEGVEHEDNLIVRAARLLMKTAADSGRLPTGSGANISIDKRLPMGGGLGGGSSNAATVLVALNHLWQCGLSMDELAEMGLTLGADVPVFARGHAAFAEGVGEILTPVDPPEKWYLVAHPGVSIPTPVIFKDPELPRNTPKRSIETLLKCEFSNDCEVIARKRFREVDAVLSWLLEYAPSRLTGTGACVFAEFDTESEARQVLEQAPEWLNGFVAKGANLSPLHRAML
B15: ispE V146W (protein)
chain: B14 chain with A146W
B16: ispB I32P (protein)
chain: MNLEKINELTAQDMAGVNAAILEQLNSDVQLPNQLGYYIVSGGGKRIRPMIAVLAARAVGYEGNAHVTIAALIEFIHTATLLHDDVVDESDMRRGKATANAAFGNAASVLVGDFIYTRAFQMMTSLGSLKVLEVMSEAVNVIAEGEVLQLMNVNDPDITEENYMRVIYSKTARLFEAAAQCSGILAGCTPEEEKGLQDYGRYLGTAFQLIDDLLDYNADGEQLGKNVGDDLNEGKPTLPLLHAMHHGTPEQAQMIRTAIEQGNGRHLLEPVLEAMNACGSLEWTRQRAEEEADKAIAALQVLPDTPWREALIGLAHIAVQRDR
B17: ispB L110A (protein)
chain: B16 chain with P32I, L110A

molecular target: Escherichia coli (laboratory strain); assay: barcode share on antibiotic plates over drug-free plates; higher = less susceptible; conditions: antibiotic: carbenicillin; 2× MIC (3.1 µg/mL)
Protocol: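 A pool of E. coli strains, each edited to carry one amino-acid change in an essential protein, was grown for 48 h on minimal glucose agar with or without antibiotic; strain barcodes were sequenced; mean of two replicates.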

| Protein | fold change of barcode share |
| --- | --- |
| B1 | 0.211 ± 0.025 |
| B2 | 0.164 ± 0.081 |
| B3 | 0.223 ± 0.062 |
| B4 | 0.296 ± 0.045 |
| B5 | 0.335 ± 0.14 |
| B6 | 0.179 ± 0.11 |
| B7 | 0.38 ± 0.33 |
| B8 | 0.254 ± 0.073 |
| B9 | 0.179 ± 0.02 |
| B10 | 0.369 ± 0.19 |
| B11 | 0.288 ± 0.18 |
| B12 | 0.3569 ± 0.002 |
| B13 | 0.412 ± 0.14 |
| B14 | 0.364 ± 0.051 |
| B15 | 1.04 ± 0.32 |
| B16 | 0.396 ± 0.064 |
| B17 | 0.418 ± 0.15 |

same assay, conditions: antibiotic: gentamicin; 2× MIC (MIC 0.45 µg/mL)

| Protein | fold change of barcode share |
| --- | --- |
| B1 | 0.00159 ± 0.00078 |
| B2 | < 0.0114 |
| B3 | < 0.00833 |
| B4 | < 0.00836 |
| B5 | 0.00769 ± 0.0054 |
| B6 | 0.0198 ± 0.0041 |
| B7 | < 0.00964 |
| B8 | < 0.00342 |
| B9 | 0.00572 ± 0.0067 |
| B10 | 0.0287 ± 0.021 |
| B11 | < 0.00843 |
| B12 | < 0.00674 |
| B13 | 0.338 ± 0.17 |
| B14 | 0.00415 ± 0.0046 |
| B15 | 3620 [active] |
| B16 | 0.0125 ± 0.011 |
| B17 | < 0.00905 |
